PubChem BioAssay AID1347417 (National Center for Advancing Translational Sciences (NCATS), 2020)
In all, about 120,000 compounds went through this assay and about 5,300 (4.4%) were called active. Inconclusive results, whose numbers are uncertain, are shown with a selection of clear calls. The call rests on the fitted dose curve; in most records, active means well fitted inhibition curve with a large enough effect; inconclusive means small, poorly fitted or top-dose-only effect; inactive means no such curve, though single readings can be large or run the other way. A potency beside an inconclusive call is a rough fit, not a confirmed value.

Assay: qHTS Primary assay for Inhibitors of Plasmodium falciparum Dd2 growth in vitro; further: nearly all actives have a fitted effect of over 65% in size
Conditions: P. falciparum Dd2 growth, SYBR Green, 72 h; series mostly up to 28.9 µM
Summary of the method: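 Infected erythrocytes (Dd2, 0.3% parasitemia, 2.5% hematocrit final) are added to compound in RPMI-1640/Albumax II medium, grown 72 h at 37C in low oxygen, then lysed with saponin/Triton-X containing SYBR Green and read by fluorescence.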
Potency means the concentration at half of the fitted maximal effect; tags describe the fitted curve by direction and shape.

Question: For `Fc1ccccc1CN1CCNc2cc(Nc3cccnc3)ncc2C1`, which Potency is on record?
Answer: The Potency was inconclusive: 14.1 µM [inhibitor, single point].

Question: For `Cc1cccc(-n2nc(-c3c(C)nc4scc(CC(=O)NCCc5ccccc5)n4c3=O)cc2C)c1`, which Potency is on record?
Answer: The Potency was inconclusive: 3.98 µM [inhibitor, single point].

Question: Which Potency does the source give for `CCC1=Nc2cc(C(=O)NCCN(CC)CC)ccc2Sc2ccccc21` here?
Answer: Its Potency is inconclusive: 11.2 µM [inhibitor, single point].

Question: For `CC(C)C(=O)N1CCc2ccc(OCc3nc(C(=O)N4CCCC4)co3)cc2C1c1cccc(F)c1` (stereo not given), which Potency is on record?
Answer: Its Potency is inconclusive: 2.82 µM [inhibitor, single point].

Question: Which Potency does the source give for `CCc1nc2c(c(-c3ccc(O)cc3)n1)CN(Cc1ccccc1)CC2` here?
Answer: The Potency was inconclusive: 3.55 µM [inhibitor, full curve, poor fit].

Question: Which Potency does the source give for `COC(=O)c1ccccc1NC(=O)c1cc2cc(C)ccc2n1C` here?
Answer: Its Potency is inconclusive: 6.31 µM [inhibitor, partial curve, poor fit].

Question: For `O=C(Nc1ccc2c(c1)N(C1CCCC1)C(=O)c1ccccc1S2)c1ccccc1F`, which Potency is on record?
Answer: The Potency was inconclusive: 11.2 µM [inhibitor, single point].

Question: For `Cn1nc(-c2ccc(F)cc2)cc1[C@H]1CN2CC[C@H]1C[C@@H]2CNC(=O)COc1ccccc1`, which Potency is on record?
Answer: The Potency was “inactive”.

Question: With `COc1ccc(-n2nc3n(c2=O)CCN([S+](=O)([O-])c2ccccc2)C3)cc1` as the compound, how does the Potency read?
Answer: Its Potency is inconclusive: 7.94 µM [inhibitor, partial curve, poor fit].

Question: With `COCc1nc2nc(-c3ccccc3)c(-c3cccc(NC(C)=O)c3)cc2n1C` as the compound, how does the Potency read?
Answer: Its Potency is inconclusive: 2.51 µM [inhibitor, full curve, poor fit].

Question: For `Cc1ccccc1NC(=O)CCS(=O)(=O)c1cc(Br)cc2c1N(C(=O)C1CC1)CC2`, which Potency is on record?
Answer: The Potency was inconclusive: 8.91 µM [inhibitor, partial curve, poor fit].

Question: Which Potency does the source give for `CCc1ccc([S+](=O)([O-])c2nnn3c2nc(NCc2ccncc2)c2ccccc23)cc1` here?
Answer: The Potency was inconclusive: 7.08 µM [inhibitor, single point].

Question: For `CCCN1C(=O)Cc2cc(C(=O)NC(C)c3ccc(OCC)cc3)ccc21` (stereo not given), which Potency is on record?
Answer: Its Potency is inconclusive: 3.16 µM [inhibitor, partial curve, poor fit].

Question: With `O=C1NCCCCCN(C(=O)c2cccs2)[C@@H]2C[C@@H](C(=O)N3CCc4ccccc4C3)C[C@H]12` as the compound, how does the Potency read?
Answer: Its Potency is inconclusive: 7.94 µM [inhibitor, partial curve, poor fit].

Question: For `COc1cccc(CN2C(=O)CCCCC2C(=O)NCCc2nc3ccccc3n2C)c1` (stereo not given), which Potency is on record?
Answer: Its Potency is inconclusive: 10 µM [inhibitor, single point].
